The text below walks through data of publication PMC4336329 (PLoS ONE, 2015).

The structures appear in SMILES notation. Screen size: about 310,000 compounds; about 2,200 (0.71%) showed an effect of 50% or more. The effect is printed as a negative number. Some of the results follow.

The target of this assay is human ether-à-go-go-related gene (hERG) potassium channel (human, UniProt Q12809). The experiment in a line: primary screen, population patch clamp on CHO cells stably expressing hERG.
Chain of human ether-à-go-go-related gene (hERG) potassium channel (Q12809 whole entry, looked up): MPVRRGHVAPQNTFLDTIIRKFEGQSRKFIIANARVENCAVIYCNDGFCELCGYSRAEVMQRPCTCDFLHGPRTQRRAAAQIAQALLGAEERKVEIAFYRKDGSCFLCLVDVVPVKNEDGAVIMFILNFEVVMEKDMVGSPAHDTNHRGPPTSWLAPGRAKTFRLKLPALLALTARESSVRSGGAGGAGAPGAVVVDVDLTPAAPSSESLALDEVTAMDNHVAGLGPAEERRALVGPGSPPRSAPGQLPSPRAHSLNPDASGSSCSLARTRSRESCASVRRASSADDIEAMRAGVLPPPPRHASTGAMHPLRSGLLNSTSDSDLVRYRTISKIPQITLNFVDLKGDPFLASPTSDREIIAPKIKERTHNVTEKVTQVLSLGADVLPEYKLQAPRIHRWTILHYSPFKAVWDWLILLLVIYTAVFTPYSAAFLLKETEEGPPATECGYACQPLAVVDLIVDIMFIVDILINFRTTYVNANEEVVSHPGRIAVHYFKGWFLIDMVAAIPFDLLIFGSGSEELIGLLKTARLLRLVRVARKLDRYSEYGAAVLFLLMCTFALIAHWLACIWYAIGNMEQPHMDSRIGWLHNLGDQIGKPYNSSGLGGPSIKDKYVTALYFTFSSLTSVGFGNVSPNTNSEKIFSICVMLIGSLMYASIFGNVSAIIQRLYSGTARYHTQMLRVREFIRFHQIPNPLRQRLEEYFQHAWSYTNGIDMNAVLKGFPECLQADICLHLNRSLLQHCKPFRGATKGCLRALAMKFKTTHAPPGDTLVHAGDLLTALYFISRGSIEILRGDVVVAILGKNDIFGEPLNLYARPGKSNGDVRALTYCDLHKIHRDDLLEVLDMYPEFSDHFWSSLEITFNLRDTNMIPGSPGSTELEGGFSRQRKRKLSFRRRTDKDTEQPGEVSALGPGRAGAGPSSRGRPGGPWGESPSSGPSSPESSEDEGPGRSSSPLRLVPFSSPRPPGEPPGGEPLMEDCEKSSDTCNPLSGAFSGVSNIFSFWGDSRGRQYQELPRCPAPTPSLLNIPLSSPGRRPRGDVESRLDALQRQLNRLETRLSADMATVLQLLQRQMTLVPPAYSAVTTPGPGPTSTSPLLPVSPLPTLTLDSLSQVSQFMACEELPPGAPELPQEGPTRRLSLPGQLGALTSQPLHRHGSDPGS
As for `O=c1[nH]ncc(NCCCO)c1Cl`, the “hERG current change (%, negative = inhibition) at 1uM” value came out at 8.27%.

With `CC1CCCN(S(=O)(=O)c2cccc3nonc23)C1` (stereo not drawn), the “hERG current change (%, negative = inhibition) at 1uM” value turned out to be 11.5%.

For the molecule `C#CCSc1nc(N)c2c(n1)OC(N)=C(C#N)C2c1cccnc1` (stereo not drawn), the “hERG current change (%, negative = inhibition) at 1uM” value is reported as 4.59%.

Consider `CCc1ccc(NC(=O)C2CCC(CNC(=O)[C@@H]3Cc4ccccc4CN3)CC2)cc1` (stereo partly drawn), for which the “hERG current change (%, negative = inhibition) at 1uM” value was determined as 12.1%.

As to `O=C(Nc1cc(S(=O)(=O)N2CCOCC2)ccc1N1CCOCC1)c1cn2ccccc2n1`, the “hERG current change (%, negative = inhibition) at 1uM” value was -7.67%.

As to `CCOC(=O)c1ccc(S(=O)(=O)NNC(=O)COc2cccc(C)c2)cc1`, the “hERG current change (%, negative = inhibition) at 1uM” value is recorded as 23.3%.

As to `Cc1c(Cl)cccc1NC(=O)Nc1ccccc1C(N)=O`, the “hERG current change (%, negative = inhibition) at 1uM” value was 11.6%.

Turning to `Cc1nn(Cc2c(Cl)cccc2Cl)c(C)c1NC(=O)CCCn1nc(C)c([N+](=O)[O-])c1C`, the “hERG current change (%, negative = inhibition) at 1uM” value is 5.96%.

As to `CC(NC(=O)c1ccc(Br)cc1)c1ccc2c(c1)CCCC2` (stereo not drawn), the “hERG current change (%, negative = inhibition) at 1uM” value is recorded as 5.34%.

With `Cc1ccc(Cl)cc1N1CCN(S(C)(=O)=O)CC1`, the “hERG current change (%, negative = inhibition) at 1uM” value is on record as 4.78%.

Take `O=C(CN(c1cccc([N+](=O)[O-])c1)S(=O)(=O)c1ccccc1)N(Cc1ccccc1)Cc1ccccc1`: the “hERG current change (%, negative = inhibition) at 1uM” value was 8.33%.

Consider `CC(C(=O)OCn1nnc2ccccc2c1=O)N1C(=O)c2ccccc2C1=O` (stereo not drawn), for which the “hERG current change (%, negative = inhibition) at 1uM” value is 4.25%.

With `CCOc1cc2[nH]c(=S)n(Cc3ccc(C(=O)NCCCN4CCOCC4)cc3)c(=O)c2cc1OCC`, the “hERG current change (%, negative = inhibition) at 1uM” value is 14.9%.

As for `COc1cc2[nH]c3c(=O)n(CCN4CCOCC4)cnc3c2cc1OC`, the “hERG current change (%, negative = inhibition) at 1uM” value is reported as -4.6%.

On to `O=C1/C(=C\c2ccccc2Cl)SC(=S)N1CCC(=O)N1CCCc2ccccc21`, for which the “hERG current change (%, negative = inhibition) at 1uM” value came out at 10.9%.

Take `COC(=O)C1=NN(C(=O)c2ccc(C)cc2)C(O)(c2ccc(Cl)cc2)C1` (stereo not drawn): the “hERG current change (%, negative = inhibition) at 1uM” value is reported as 6.18%.

On to `O=C1C2C3C=CC(C2C(=O)N1c1nccs1)C1C(=O)N(c2nccs2)C(=O)C31` (stereo not drawn), for which the “hERG current change (%, negative = inhibition) at 1uM” value was 13%.

Take `Cc1cc(N2CCC(C(N)=O)CC2)nc(-c2ccccc2)n1`: the “hERG current change (%, negative = inhibition) at 1uM” value is on record as 1.01%.

In the case of `CCn1nnnc1SCC(=O)NC1Cc2ccccc2C1`, the “hERG current change (%, negative = inhibition) at 1uM” value came to 15.4%.

On to `CC(=O)NC1(C(F)(F)F)C(=O)Nc2c1c(=O)[nH]c(=O)n2CCc1ccccc1` (stereo not drawn), for which the “hERG current change (%, negative = inhibition) at 1uM” value was found to be 13.6%.

As to `O=C(O)COCC(=O)N1CCN(C(c2ccccc2)c2ccccc2)CC1`, the “hERG current change (%, negative = inhibition) at 1uM” value turned out to be 4.78%.

Regarding `CSc1ccccc1OCc1cc(C(=O)N2CCN(c3ccccc3)CC2C)no1` (stereo not drawn), the “hERG current change (%, negative = inhibition) at 1uM” value amounted to 8.41%.

With `O=C(O)c1cn[nH]c1-c1cccc([N+](=O)[O-])c1`, the “hERG current change (%, negative = inhibition) at 1uM” value is given as 15.8%.

Take `CC(C(O)C12CC3CC(CC(C3)C1)C2)N1CCCCC1.Cl` (stereo not drawn): the “hERG current change (%, negative = inhibition) at 1uM” value is given as 14.8%.

As to `CCC(C)NC(=O)NC1C(NC(=O)NC(C)CC)N(C)C(=O)N1C` (stereo not drawn), the “hERG current change (%, negative = inhibition) at 1uM” value is given as 14.2%.

For `CCCCNC(=S)N(C)/N=C/c1ccccc1F`, the “hERG current change (%, negative = inhibition) at 1uM” value is reported as 8.52%.

For the molecule `CC(C)CCNC(=O)CN(Cc1ccc2c(c1)OCO2)C(=O)CCC(=O)Nc1ccccn1`, the “hERG current change (%, negative = inhibition) at 1uM” value is -32.9%.

For the molecule `CCCCNC(=O)c1onc(CSc2cc(C)cc(C)c2)c1C(=O)NCCCC`, the “hERG current change (%, negative = inhibition) at 1uM” value is 12.6%.

On to `N#Cc1c(F)cccc1N1CCN(Cc2ccc3c(c2)OCO3)CC1`, for which the “hERG current change (%, negative = inhibition) at 1uM” value was -36.9%.

Take `NC(=O)CNc1n[nH]c(=S)[nH]c1=O`: the “hERG current change (%, negative = inhibition) at 1uM” value is listed as 12.7%.

Regarding `OCC1CCCCN1C(=S)Nc1cccc(Cl)c1` (stereo not drawn), the “hERG current change (%, negative = inhibition) at 1uM” value was -0.734%.

Take `COc1ccccc1NC(=S)N1CCn2cccc2C1c1cccnc1` (stereo not drawn): the “hERG current change (%, negative = inhibition) at 1uM” value is recorded as 1.4%.

For `Cc1cc(C)cc(NC(=O)CCn2c(=S)[nH]c3ccccc3c2=O)c1`, the “hERG current change (%, negative = inhibition) at 1uM” value is given as 9.17%.

Take `COc1ccc2cc(C(C)C(=O)N3CCC(C(N)=O)CC3)ccc2c1` (stereo not drawn): the “hERG current change (%, negative = inhibition) at 1uM” value was determined as 3.43%.

With `NC(=O)c1nsc(C(=O)N(Cc2cccnc2)C(C(=O)NCc2ccc(F)cc2)c2ccc(F)cc2)c1N` (stereo not drawn), the “hERG current change (%, negative = inhibition) at 1uM” value is recorded as 19.2%.

In the case of `CCc1ccc2oc(=O)cc(CN3CCN(CCO)CC3)c2c1`, the “hERG current change (%, negative = inhibition) at 1uM” value came out at 11.4%.

As for `O=C(COC(=O)Cc1ccsc1)NC(c1ccccc1)c1ccccc1`, the “hERG current change (%, negative = inhibition) at 1uM” value was found to be 15.3%.

In the case of `O=C(CC1NC(=S)NC1=O)c1ccc(Cl)cc1` (stereo not drawn), the “hERG current change (%, negative = inhibition) at 1uM” value amounted to 12.5%.

In the case of `O=C(CSc1n[nH]c(-c2ccccc2Br)n1)NCCN1C(=O)CSC1=O`, the “hERG current change (%, negative = inhibition) at 1uM” value was 18.9%.

For `Cc1ccc(S(=O)(=O)CCC(=O)OCC(=O)c2ccc(F)cc2)cc1`, the “hERG current change (%, negative = inhibition) at 1uM” value is 6.33%.

Regarding `Fc1ccc(CSc2ccc(-c3cccs3)nn2)cc1`, the “hERG current change (%, negative = inhibition) at 1uM” value was found to be 11.7%.

Consider `O=C(Cc1sc(-c2ccccc2)nc1-c1ccccc1)Nc1ccc(Cl)cc1`, for which the “hERG current change (%, negative = inhibition) at 1uM” value stood at 2.24%.

As to `NC1=NC(=Nc2ccc(S(=O)(=O)N3CCOCC3)cc2)c2ccccc21`, the “hERG current change (%, negative = inhibition) at 1uM” value is given as 5.78%.

On to `CC(=O)C1=C(O)C(=O)N(CCc2c[nH]c3ccccc23)C1c1cccc(O)c1` (stereo not drawn), for which the “hERG current change (%, negative = inhibition) at 1uM” value came to 8.05%.

`CCN1CCN(C(=S)c2ccc(O)cc2)CC1`: the “hERG current change (%, negative = inhibition) at 1uM” value was 9.02%.

As to `COc1ccc(CCNC(=O)C2CCN(C(=O)NC3CCCCC3)CC2)cc1`, the “hERG current change (%, negative = inhibition) at 1uM” value turned out to be 10.2%.

As to `O=C(O)c1ccc(N/N=C/c2ccc(C(F)(F)F)cc2)cc1.O=S(=O)(O)O`, the “hERG current change (%, negative = inhibition) at 1uM” value was determined as 5.07%.

Regarding `CCN(CC)S(=O)(=O)c1cccc(C(=O)N2CC(O)CC2C(=O)O)c1` (stereo not drawn), the “hERG current change (%, negative = inhibition) at 1uM” value is listed as -7.03%.

Regarding `COCC1CCCCN1Cc1cn[nH]c1-c1ccc(OC)cc1OC` (stereo not drawn), the “hERG current change (%, negative = inhibition) at 1uM” value turned out to be 2.68%.

In the case of `Cc1ccc(NCC(=O)c2ccc(C)cc2)cc1`, the “hERG current change (%, negative = inhibition) at 1uM” value worked out at 11.5%.

As to `Cc1ccc(NC(=O)CN2C(=O)c3ccccc3S2(=O)=O)c(C)c1`, the “hERG current change (%, negative = inhibition) at 1uM” value was 8.93%.

Consider `COc1ccc(Cl)cc1NC(=O)CSc1nc(N2CCOCC2)nc(N2CCOCC2)n1`, for which the “hERG current change (%, negative = inhibition) at 1uM” value was determined as 11%.

Turning to `O=C(c1cnc2ccccn2c1=O)N1CCCc2ccccc21`, the “hERG current change (%, negative = inhibition) at 1uM” value is 2.62%.

For the molecule `O=C(O)c1ccc(-c2ccccc2)[nH]c1=O`, the “hERG current change (%, negative = inhibition) at 1uM” value came to 6.74%.

For `O=C(O)c1cc(-c2ccc(/C=C3\NC(=O)N(c4ccc(Cl)cc4)C3=O)o2)ccc1Cl`, the “hERG current change (%, negative = inhibition) at 1uM” value is 13.6%.

On to `CC(C)(CNC(=O)c1ccc(S(=O)(=O)Nc2cccc(C(F)(F)F)c2)cc1)N1CCOCC1`, for which the “hERG current change (%, negative = inhibition) at 1uM” value is -8.04%.

With `N#Cc1c(SCc2cccc(Cl)c2)sc(C(=O)c2ccccc2)c1N`, the “hERG current change (%, negative = inhibition) at 1uM” value came out at 13.6%.
